The campaign covered roughly 380,000 compounds. About 4,000 (1.1%) were called active. The shares of active, inactive and inconclusive entries below differ from those in the screen. Calls follow the shape of the dose curve; as a rule, active = well fitted activation curve with a large enough effect; inconclusive = small, poorly fitted or top-dose-only effect; inactive = no such curve, though single readings can be large or run the other way. Potencies of inconclusive entries are doubtful fits and often do not repeat.
Assay: qHTS Assay to Identify Small Molecule Activators of BRCA1 Expression; also: nearly all actives have a fitted effect of over 80% in size
Conditions: MCF7-BRCA1-FFLuc reporter, luminescence, 48 h; activation: at 46.1 µM (top of the series), scaled: vehicle 0%, 10 µM genistein 100% unless noted
How it was run: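 First, MCF7-BRCA1-FFLuc cells (2000/well) attach for 2 h; next, compounds are pin-added and incubated 48 h at 37 °C; finally, luciferase reagent is added and luminescence read after 15 min.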
For `NNC(=S)Nc1ccc(C(F)(F)F)cc1Cl`, the “activation” value was inactive: 3.35%. For `Nc1c(C(=O)NCc2ccc3c(c2)OCO3)nnn1CC(=O)Nc1ccc(Br)cc1`, the “activation” value was inactive: -15.8%. In the case of `CC1(C)CC(=O)c2cnc(N3CCc4ccccc43)nc2C1`, the Potency is reported as inconclusive: 2.24 µM [activator, partial curve, poor fit]. In the case of `COc1ccc(C)cc1NS(=O)(=O)c1ccc(NC(=O)CN(c2cc([N+](=O)[O-])ccc2C)S(C)(=O)=O)cc1`, the “activation” value is reported as inactive: -73.4%. For `O=C(/C=C\c1ccccc1OC(=O)c1ccccc1F)c1cc2ccccc2o1`, the “activation” value was inactive: -42.8%. In the case of `O=C(CSc1nnc(-c2ccncc2)o1)Nc1cc(F)ccc1F`, the Potency is reported as inconclusive: 31.6 µM [activator, single point]. For `COC(=O)c1ccc2nc(NC(=O)CCS(=O)(=O)c3ccccc3)sc2c1`, the “activation” value was inactive: -47%. For `COc1cc(/C=C2/S/C(=N/S(=O)(=O)Cc3ccccc3)NC2=O)c([N+](=O)[O-])cc1OC`, the “activation” value was inactive: -19.6%. In the case of `CCN(CC)C(=O)c1sc(NC(=O)c2ccc3c(c2)OCO3)c(C(N)=O)c1C`, the Potency is reported as active: 11.2 µM. With `O=C(NC1CCCC1)C(=O)c1c[nH]c2ccccc12` the Potency was active: 11.2 µM. For `CC1CCN(CC(=O)Nc2ccc(Cl)cc2[N+](=O)[O-])CC1`, the “activation” value was inactive: -2.31%. In the case of `Cc1nc(N2CCC(C)CC2)c2nnn(Cc3ccccc3)c2n1`, the “activation” value is reported as inactive: -29.8%. For `O=C(Nc1ccc2oc(-c3ccccc3)nc2c1)C1CCCO1` (stereo unspecified), the Potency was inconclusive: 2 µM [activator, full curve, poor fit]. With `Cc1ccc(C2=NN(S(C)(=O)=O)C(c3cccs3)C2)cc1` (stereo unspecified) the Potency was inconclusive: 2.24 µM [activator, full curve, poor fit]. In the case of `O=C1CCCN1CCCNc1ncnc2c1cnn2-c1ccc(Cl)cc1`, the Potency is reported as inconclusive: 3.16 µM [activator, partial curve, poor fit]. With `CC1(C)CC(=O)C=C(c2ccc(I)cc2)C1` the Potency was inconclusive: 35.5 µM [activator, single point]. In the case of `N/C(=N\OC(=O)c1ccc2ccccc2c1)c1ccccc1Cl`, the Potency is reported as inconclusive: 2.82 µM [activator, partial curve, poor fit]. In the case of `Cc1ccc(-c2ccc(C(=O)O)o2)cc1Cl`, the Potency is reported as inconclusive: 20 µM [activator, single point]. In the case of `CC(=O)c1c(C)[nH]c(C(=O)OCC(=O)Nc2cc(C)on2)c1C`, the “activation” value is reported as inactive: -45.6%. With `Nc1c(-c2cccs2)cnc2c(-c3ccc(F)cc3)cnn12` the Potency was inconclusive: 0.562 µM [activator, full curve, poor fit]. For `Cc1ccc(-c2cc(C(=O)N/N=C/c3ccc([N+](=O)[O-])o3)c3ccccc3n2)o1`, the “activation” value was inactive: -31.6%. In the case of `CC1CCc2nc(NC(=O)c3ccco3)sc2C1` (stereo unspecified), the activation is reported as inconclusive: -75% [activator]. For `COc1ccc(C2=NN3C(C2)c2ccccc2OC3c2cccs2)cc1` (stereo unspecified), the Potency was active: 10 µM. In the case of `Cc1c(-c2nc(N)nc(Nc3ccc(F)cc3)n2)oc2ccccc12`, the Potency is reported as inconclusive: 1 µM [activator, full curve, poor fit]. In the case of `COCCCNc1ccn2nc(-c3cccc(Cl)c3)cc2n1`, the Potency is reported as inconclusive: 1.26 µM [activator, partial curve, poor fit]. With `CC(C)c1ccc(C(=O)NN2C(=O)C3CCCCC3C2=O)cc1` (stereo unspecified) the Potency was inconclusive: 3.55 µM [activator, partial curve, poor fit]. For `CCC(=O)Nc1ccc(C(=O)OCc2ccccc2)cc1`, the Potency was inconclusive: 35.5 µM [activator, single point]. For `COc1ccc(-c2csc(NC(=O)COC(=O)C3=COCCO3)n2)cc1`, the Potency was active: 5.01 µM. In the case of `Cc1csc(=NC(=O)c2ccccc2)n1C`, the Potency is reported as inconclusive: 11.2 µM [activator, partial curve, poor fit]. In the case of `COCCCNc1oc(/C=C/c2ccccc2)nc1C#N`, the Potency is reported as inconclusive: 1.41 µM [activator, full curve, poor fit]. For `Clc1c(CSc2nc3ccccc3o2)nc2ccccn12`, the Potency was inconclusive: 0.501 µM [activator, full curve, poor fit]. With `O=c1oc(C2(O)CCCCC2)cc2ccc(-c3ccc4[nH]ccc4c3)cc12` the Potency was inconclusive: 3.16 µM [activator, partial curve, poor fit]. In the case of `CC(=O)c1ccc(NC(=O)c2ccn[nH]2)cc1`, the Potency is reported as inconclusive: 0.631 µM [activator, full curve, poor fit]. With `CSc1nc(N)n2nc(-c3ccc(Cl)cc3)cc2n1` the Potency was inconclusive: 7.08 µM [activator, partial curve, poor fit]. For `O=c1c2ccccc2sc2ccc(NCCCN3CCOCC3)cc12`, the Potency was active: 11.2 µM. With `O=C(Nc1cnc2ccccc2c1)N1CCCCC1` the Potency was inconclusive: 0.631 µM [activator, full curve, poor fit]. In the case of `NC(=O)C1CCN(c2nc(-c3ccc(Br)cc3)cs2)CC1`, the Potency is reported as active: 1.78 µM. For `CCc1ccn2cc(-c3ccc4c(c3)OCO4)nc2c1`, the activation was inconclusive: -97.7% [activator]. With `CCOC(=O)CCn1nc(-c2ccc(Cl)cc2)cc1N` the Potency was inconclusive: 17.8 µM [activator, partial curve, poor fit]. With `Cc1cc(=O)[nH]c(N=N/C(=N/Nc2ccc(O)cc2)c2ccccc2)n1` the “activation” value was inactive: -10.9%. For `COc1cccc(Nc2nc(N)nc(C(F)(F)F)n2)c1`, the Potency was inconclusive: 14.1 µM [activator, single point]. In the case of `CC(=O)NCc1ccc(-c2nc3ccccc3s2)cc1`, the Potency is reported as inconclusive: 1.58 µM [activator, partial curve, poor fit]. For `Cc1cc(C)c(C(=O)/C=C/c2ccco2)c(=O)[nH]1`, the “activation” value was inactive: -40.7%. For `O=C(c1cc(-c2ccccc2)on1)N1CCCCCC1`, the Potency was active: 1.78 µM. With `O=C(O)c1ccc(N=NN2CCCCC2)cc1` the Potency was inconclusive: 14.1 µM [activator, partial curve, poor fit]. With `O=C1C=C(c2ccc(Cl)c(C(F)(F)F)c2)C[C@@H](c2ccc(Cl)cc2)C1` the “activation” value was inactive: -8.74%. In the case of `Nc1ccc(C#Cc2ccc3c(=O)c4ccccc4oc3c2)cc1`, the Potency is reported as active: 10 µM. In the case of `O=C(Nc1ncc(Cc2cccc(Cl)c2)s1)C1CCCO1` (stereo unspecified), the Potency is reported as inconclusive: 2.51 µM [activator, full curve, poor fit]. With `C=CCNc1oc(/C=C/c2ccccc2)nc1C#N` the Potency was inconclusive: 3.16 µM [activator, full curve, poor fit]. With `O=S(=O)(/C=C/c1ccccc1)Oc1ccccc1` the “activation” value was inactive: -4.34%. For `Cc1ccccc1N(Cc1cc(=O)[nH]c2ccccc12)C(=O)C(C)C`, the “activation” value was inactive: -12.2%. In the case of `CC(=O)c1cccc(NC(=S)NC(=O)c2ccc(Cl)cc2)c1`, the Potency is reported as inconclusive: 12.6 µM [activator, partial curve, poor fit]. With `Cc1cccc(-c2nc(Nc3cccc(O)c3)c3ccccc3n2)c1` the “activation” value was inactive: 2.25%. With `COc1cccc(CNc2nc3nc(C)c(Cl)c(C)n3n2)c1` the Potency was active: 11.2 µM. For `CC1(C)Cc2nc3sc4c(=O)[nH]cnc4c3cc2CS1`, the Potency was inconclusive: 12.6 µM [activator, single point]. In the case of `CC(=O)Nc1ccc2nc3ccccc3nc2c1`, the Potency is reported as active: 5.62 µM. With `Cc1ccc(C(=O)N2CCc3ccccc32)o1` the Potency was inconclusive: 1.12 µM [activator, full curve, poor fit]. For `CC(C)(C)c1ccc(-c2noc(CCC(=O)NCc3ccco3)n2)cc1`, the activation was inconclusive: -91.6% [activator]. For `N#C/C(=C\c1cccs1)C(=O)Nc1nccs1`, the Potency was active: 14.1 µM. For `C=CCn1c(O)c(C=Nc2ccccc2)sc1=S`, the Potency was inconclusive: 11.2 µM [activator, partial curve, poor fit]. For `O=[N+]([O-])c1cccc(-c2cn3ccccc3n2)c1`, the Potency was inconclusive: 3.16 µM [activator, partial curve, poor fit]. With `O=C(C[N+]12CN3CN(CN(C3)C1)C2)c1ccc(-c2ccccc2)cc1` the Potency was inconclusive: 12.6 µM [activator, single point]. In the case of `O=C(NCCCNC(=O)c1c(F)cccc1F)c1c(F)cccc1F`, the “activation” value is reported as inactive: 8.24%. With `COc1ccc(CNC(=O)C2COc3ccccc3O2)c(OC)c1` (stereo unspecified) the Potency was inconclusive: 12.6 µM [activator, partial curve, poor fit]. With `O=C(O)C=C1CCN(c2ncc(C(F)(F)F)cc2Cl)CC1` the Potency was active: 11.2 µM. In the case of `Cc1nc2ccccc2nc1-c1csc(-c2ccccc2)n1`, the Potency is reported as inconclusive: 2.51 µM [activator, partial curve, poor fit]. With `O=C(NCCc1cnc[nH]1)c1ccc(-c2ccccc2)cc1` the Potency was inconclusive: 12.6 µM [activator, partial curve, poor fit]. In the case of `CN1CCN(C(=O)c2cc(-c3ccccc3)on2)CC1`, the Potency is reported as active: 7.94 µM. In the case of `Fc1ccc(NC(=S)SCc2ccc3c(c2)OCO3)cc1F`, the “activation” value is reported as inactive: -24.2%. With `CCc1ccc(OCC(=O)Nc2ccc(-c3nc4ccccc4o3)c(O)c2)cc1` the Potency was inconclusive: 8.91 µM [activator, partial curve, poor fit]. In the case of `CS(=O)(=O)N1CCN(C(=O)c2cccnc2)CC1`, the “activation” value is reported as inactive: 11.5%. For `CCCc1nnc(NC(=S)Nc2ccccc2)s1`, the Potency was active: 2.24 µM. In the case of `Cn1ccnc1SCC(=O)c1ccc(Cl)cc1`, the Potency is reported as inconclusive: 17.8 µM [activator, single point]. For `COc1ccc(NC(=O)c2cc3ccc(O)cc3o/c2=N\O)cc1`, the Potency was inconclusive: 1 µM [activator, full curve, poor fit]. In the case of `Cc1ccc(NC(=O)CSc2nccn2Cc2ccco2)cc1`, the Potency is reported as active: 10 µM. In the case of `Cc1ccc(N2C(=O)c3n[nH]c(C)c3C2c2ccco2)cc1` (stereo unspecified), the Potency is reported as inconclusive: 11.2 µM [activator, partial curve, poor fit].
Potency is read from the fitted curve at half-maximal effect; tags tell the direction and shape of the fitted curve.
